Source: PubChem BioAssay AID894 (National Center for Advancing Translational Sciences (NCATS), 2007)
Hit rate of the full screen: of about 150,000 compounds, about 6,500 (4.3%) were called active. The shares of active, inactive and inconclusive entries below differ from those in the screen. Calls come from the whole dose curve; as a rule, active = well fitted inhibition curve with a large enough effect (not every such curve was filed as active); inconclusive = small, poorly fitted or top-dose-only effect, or another doubt; inactive = no such curve, though single readings can be large or run the other way. No potency is given beside an inconclusive call; the fits are too rough.

target: 15-hydroxyprostaglandin dehydrogenase [NAD(+)] (Homo sapiens) (UniProt P15428); experiment: qHTS Assay for Inhibitors of HPGD (15-Hydroxyprostaglandin Dehydrogenase); settings: purified HPGD, NADH fluorescence kinetic, PGE2 substrate; activity change, negative = inhibition: stronger effect = lower value
In short: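 20 nM HPGD preincubated 15 min at room temperature with compound in 50 mM Tris-HCl pH 8, 0.01% Tween 20. Started with 1 mM NAD+ and 30 uM prostaglandin E2; NADH fluorescence (360/450 nm) read 5 times over 30-s intervals, last minus first.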
% is set by controls: 0 for no effect and ±100 for the full control effect; potency is the fitted concentration of half-maximal effect; tags give direction and shape of the fitted curve.

Sequence of UniProt P15428 (P15428 whole entry, looked up): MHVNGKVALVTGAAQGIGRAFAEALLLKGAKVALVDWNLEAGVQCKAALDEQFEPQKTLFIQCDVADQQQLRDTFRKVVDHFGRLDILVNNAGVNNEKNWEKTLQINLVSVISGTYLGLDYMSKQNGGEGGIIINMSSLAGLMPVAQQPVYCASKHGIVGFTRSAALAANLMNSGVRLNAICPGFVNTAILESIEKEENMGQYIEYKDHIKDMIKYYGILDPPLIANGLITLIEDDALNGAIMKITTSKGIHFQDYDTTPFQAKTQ

| Structure (SMILES) | Potency | activity change, negative = inhibition |
| --- | --- | --- |
| O=c1c2ccccc2sn1-c1ccccc1 | active: 0.562 µM |  |
| Cc1cc(C(=O)COC(=O)c2ccc[nH]c2=O)c(C)n1C1CC1 |  | inactive: -3.08% |
| CN(C)S(=O)(=O)c1cccc(C(=O)OCC(=O)Nc2sccc2C#N)c1 |  | inactive: -10.2% |
| O=C(CCn1[nH]c(=O)c2ccccc2c1=O)OC1CCCCC1 | inconclusive [inhibitor, single point] |  |
| Clc1ccc(OCc2cc(-c3ccccc3)no2)c(Cl)c1 | inconclusive [inhibitor, partial curve] |  |
| CCC1(CC)Nc2ccccc2C(=O)N1c1ccc(NC(C)=O)cc1 | inconclusive [inhibitor, partial curve] |  |
| O=C(CCN1CCCCC1)c1ccc2c(c1)OCO2 | inconclusive [inhibitor, single point] |  |
| CCC(C)(C)C1CCC2(CC1)NC(=O)N(CC(=O)Nc1nc(-c3ccc(C)cc3)cs1)C2=O (stereo not given) |  | inactive: -12.8% |
| CCC(=O)Nc1ccc(/C(C)=N\NS(=O)(=O)c2ccc(C)cc2)cc1 |  | inactive: -13% |
| NC(=S)NNc1cccc(Cl)c1 |  | inactive: -21.7% |
| Cc1ccc(C(=O)CSc2nc3ccccc3c(=O)n2N)o1 | active: 25.1 µM |  |
| C#CCOC(=O)/C(=C/C=C/c1ccccc1)NC(=O)c1ccccc1 | inconclusive [inhibitor, partial curve] |  |
| COc1ccc(Cl)cc1NC(=O)Cn1cccc1 |  | inactive: -16.3% |
| COCCn1c(=O)c(-c2ccc(F)cc2)nc2cnc(OCc3ccccc3)nc21 | inconclusive [inhibitor, partial curve] |  |
| Cc1cc(C)c(S(=O)(=O)Nc2ccccc2C(=O)O)cc1C | inconclusive [inhibitor, partial curve] |  |
| CCCc1cc(C(=O)Nc2sc(C)c(C)c2C(=O)OCC)no1 | inconclusive [inhibitor, partial curve] |  |
| CC(C)CNC(=O)c1cc(-c2ccco2)on1 | inconclusive [inhibitor, single point] |  |
| Cc1onc(-c2ccccc2Cl)c1C(=O)Nc1ccc(-c2cn3cccnc3n2)cc1 | inconclusive [inhibitor, partial curve] |  |
| CC(c1ccc(Cl)cc1)n1c(-c2ccc3ccccc3n2)n[nH]c1=S (stereo not given) | inconclusive [inhibitor, partial curve] |  |
| Cc1noc(/C=C/N(C)C)c1S(=O)(=O)N1CCCC(C(=O)Nc2ccc3c(c2)OCO3)C1 (stereo not given) | inconclusive [inhibitor, single point] |  |
